Screen size: about 330,000 compounds; about 4,200 (1.3%) were called active. Inconclusive results, whose numbers are uncertain, are shown with a selection of clear calls. Calls follow the shape of the dose curve; as a rule, active = well fitted activation curve with a large enough effect; inconclusive = small, poorly fitted or top-dose-only effect; inactive = no such curve, though single readings can be large or run the other way. A potency beside an inconclusive call is a rough fit, not a confirmed value.
assay: qHTS screen for small molecules that induce genotoxicity in human embryonic kidney (HEK293T) cells expressing luciferase-tagged ELG1; conditions: HEK293T ELG1-luciferase reporter, luminescence, 16 h; series mostly up to 46 µM; also: nearly all actives have a fitted effect of over 60% in size
Procedure, shortened: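 After overnight (16 hr) compound treatment at 37 °C, ELG1-luciferase HEK293T cells were lysed with ONE-Glo; luminescence quantified 30 min later at room temperature.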
Potency is read from the fitted curve at half-maximal effect; tags tell the direction and shape of the fitted curve.

Which Potency does the source give for `COc1cc2ccccc2cc1C(=O)NC1CCC(C)CC1` (stereo unspecified) here?
Its Potency is inconclusive: 20.6 µM [activator, partial curve, poor fit].

Which Potency does the source give for `COc1ccc(S(=O)(=O)N(C)C[C@@H]2Oc3c(NS(=O)(=O)c4cn(C)cn4)cccc3C(=O)N([C@@H](C)CO)C[C@@H]2C)cc1` here?
Its Potency is “inactive”.

Which Potency does the source give for `COc1cccc(C(=O)Oc2ccc3ccc(=O)oc3c2)c1` here?
Its Potency is “inactive”.

Which Potency does the source give for `Clc1ccc(-c2nc3n(n2)Cc2ccccc2-3)cc1` here?
Its Potency is inconclusive: 1.84 µM [activator, full curve].

Which Potency does the source give for `Cc1c(C(=O)OCC(C)C)[nH]c2c1C(=O)CC(c1cccs1)C2` (stereo unspecified) here?
Its Potency is “inactive”.

Which Potency does the source give for `Cc1ccc(-c2cc(-c3cccs3)[nH]n2)c(O)c1` here?
The Potency was active: 4.11 µM.

With `Cc1cc2nc(-c3ccc(SCc4ccc(C(=O)O)cc4)nc3)[nH]c2cc1C` as the compound, how does the Potency read?
The Potency was inconclusive: 9.2 µM [activator, partial curve, poor fit].

With `O=C(Oc1ccc(Oc2ccccc2)cc1)N1CCC(O)CC1` as the compound, how does the Potency read?
Its Potency is inconclusive: 23.1 µM [activator, partial curve, poor fit].

Which Potency does the source give for `CCn1nc(NS(=O)(=O)c2ccc(NC(C)=O)cc2)c2cc3cc(C)ccc3nc21` here?
Its Potency is “inactive”.

Which Potency does the source give for `O=C(Nc1ccccn1)c1onc2c1CCCC2` here?
Its Potency is inconclusive: 0.58 µM [activator, partial curve].

For `Nc1c(C(=O)Nc2ccc3c(c2)OCCO3)nnn1Cc1ccc(Cl)cc1`, which Potency is on record?
The Potency was inconclusive: 4.61 µM [activator, full curve].

Which Potency does the source give for `COc1cc(Nc2c3c(nc4ccccc24)CCCC3)cc(OC)c1OC` here?
The Potency was inconclusive: 20.6 µM [activator, partial curve].

For `CS(=O)(=O)c1ccc(-c2nnn(CC(=O)Nc3ccc4c(c3)OCCO4)n2)cc1`, which Potency is on record?
Its Potency is inconclusive: 29.1 µM [activator, single point].

With `COc1ccc(-c2csc(-c3cccs3)n2)cc1OC` as the compound, how does the Potency read?
Its Potency is active: 16.4 µM.

For `CCCNc1nc(C)cc(-c2cc(-c3ccc(Cl)cc3)on2)n1`, which Potency is on record?
The Potency was “inactive”.

For `COc1ccc(NC(=O)Cc2c(F)cccc2Cl)cc1`, which Potency is on record?
Its Potency is inconclusive: 9.2 µM [activator, partial curve, poor fit].

With `Nc1nccc(/C=C/c2c(F)cccc2Cl)n1` as the compound, how does the Potency read?
The Potency was inconclusive: 23.1 µM [activator, partial curve, poor fit].

For `O=C(CCN1C(=O)c2ccncc2C1=O)Nc1ccc2c(c1)OCCO2`, which Potency is on record?
Its Potency is “inactive”.

With `O=C(O)CN1CCN(Cc2cccc(Cl)c2)C1=O` as the compound, how does the Potency read?
Its Potency is “inactive”.

With `O=C(CCc1ccccc1)NC(c1cccs1)c1cc(Cl)c2cccnc2c1O` (stereo unspecified) as the compound, how does the Potency read?
Its Potency is inconclusive: 29.1 µM [activator, single point].

For `Cn1ccnc1C(=O)c1cc(SCC(=O)NCc2ccccc2)nc2ccccc12`, which Potency is on record?
The Potency was “inactive”.
